Data from the supplement of paper PMC8277577.
Where a chain is given by its changes, count along the chain named. Recombinant human monoclonal antibodies (heavy:light variable regions). ELISA EC50 on the named antigen, from 10 µg/ml down; lower = stronger. No active / inactive call.

B1: C1023 (protein)
chain 1: QVQLVQSGAEMKKPGASVKISCKASGDTFTTNYFHWVRQAPGQGLEWMGIINPSAGSTTYAQRFQGRVTMTGDSSTNTVYLELRSLRSEDTAMYFCAKGSYIPAMRSSFDPWGQGTLVTVSS
chain 2: EIVLTQSPGTLSLSPGERATLSCRASQSVSHRYLAWYQQKPGQAPRLLIDGASNRATGIPDRFSGSGSGTDFTLTISRLEPEDFGVYYCQQYGSSPPFTFGQGTKLEIK
B2: C1024 (protein)
chain 1: QVQLVESGGGVVQPGRSLRLSCAASGFTFSDYAMHWVRQAPGKGLEWVAMISYDGNSQYYADSVKGRFTISRDNSKNTLYLQMNILRPEDTAVYYCARTFSIRIGHHDYWGQGTLVTVSS
chain 2: NFMLTQPHSVSESPGKTVTISCTGSSGSIASNYVHWYQQRPGSAPTTVIFEDNQRPSGVPDRFSGSIDSSSNSASLTISGLKTEDEADYYCQSYDSSSFWVFGGGTKLTVL
B3: C846 (protein)
chain 1: QVQLVESGGGVFQPGRSLRLSCAASGFNFRTYAMHWVRQAPGKGLEWVAVILDDGSGKFYADSVKGRFTVSRDNSKHTLYLQMTSLSAEDTAIYFCARDQGTATTYFDHWGQGTLVTVSS
chain 2: DIQMTQSPSSLSASVGDRVTITCRASQSIRTFLSWYQQKAGKAPKLLIYTASSLQNGVPSRFSGSGSGTDFTLTISSLQPEDFATYYCQQSYETPPWTFGQGTKVEIK
B4: C903 (protein)
chain 1: EVQLVESGGGLIQPGGSLRLSCAASGFIVSRNYMSWVRQAPGKGLEWVSIIYSGGSTFYADSVKGRFTISRDNSKNTVYLQMNSLRAEDTAVYYCARDYGDFYFDYWGQGTLVTVSS
chain 2: EIVLTQSPGTLSLSPGERATLSCRASQSVSSSYLAWYQQKPGQAPRLLIFDVSSRATGIPDRFSGSGSGTDFTLTISRLEPEDFAVYYCQQYGSSPRTFGQGTKVEIK
B5: C904 (protein)
chain 1: QVQLQQWGAGLLKPSETLSLTCAVNGGSLSLYYWSWIRQSPGKGLEWIGEINHFGGSDYKPSLKSRVSISVDTSTNQFSLKLSSVTAADTAVYYCARKPLLHSNISPGAFDIWGQGTMVTVSS
chain 2: EIVLTQSPGTLSLSPGERATLSCRASQSVAGSYLAWYQQKPGQAPRLLIYGASSRATGVPDRISGSGSGTDFTLTISRLEPEDFAVYYCQQYTNTPRTFGGGTKVEI
B6: C905 (protein)
chain 1: QVQLQESGPGLVTPSQTLSLTCSVSGGSIHSRDFYWGWIRQHPGKGLEWIGHIYYTGNTYYNPSLKSRVTISADTSKNQFSLKLSSVTAADTAVYYCARATVVITLHWFDPWGQGTLVTVSS
chain 2: NFMLTQPHSVSESPGKTVTISCTGSGGSIASNYVQWYQQRPGSAPTTVIYEDNERPSGVPDRFSGSIDSSSNSASLTISGVKTEDEADYFCQSYDVGNPVIFGGGTKLTVL
B7: C906 (protein)
chain 1: EVQLVESGGGLIKPGRSLRLSCTASGFTFGDYAMTWFRQAPGKGLEWVGFIRSKAYGGTTGYAASVKYRFTISRDDSKSIVYLQMDSLKTEDTAVYYCTRWDGWSQHDYWGQGTLVTVSS
chain 2: DIVMTQSPLSLSVTPGEPASISCRSSQSLLHSNGINYFDWYLQKPGQSPQLLIYLGSNRASGVPDRFSGSGSGTDFTLKISRVEAEDVGVYYCMQVLQIPYTFGQGTKLEI
B8: C907 (protein)
chain 1: QVQLQESGPGLVKPSETLSLTCTVSGGSITSYYWTWIRQSPGKGLEWIGYIYYIGSTNYNPSLKSRLTISLATSKNQFSLRLNSVTAADTAVYYCASYYNDTSGYSYGLDVWGQGTTVTVSS
chain 2: DIQMTQSPSSLSAFVGDRVTITCRAGQSISSYLHWYQQKPGKAPKLLIYATSTLQSGVPSRFSGRGSGTDFTLTISGLQPEDFATYYCQQSYSTPQTFGQGTKVEIK
B9: C908 (protein)
chain 1: EVQLVQSGAEVKKPGESLKISCKASGYSFTIYWIGWVRQMPGKGLEWMGIIYPGESETRYSPSFQGQVTISADKSISTAYLQWRSLKASDTAMYYCARGGPPGGVKLELTDYWGQGTLVTVSS
chain 2: not shown
B10: C909 (protein)
chain 1: QVQLVQSGAEVKKPGASVKVSCRASGYTFPNYDLNWVRQATGQGLEWMGWMNPNSGNTGYAQKFQGRITMTRITSISTAYMELSSLRSEDTAVYYCARGRANWNSNFLLDSWGQGTLVTVSS
chain 2: QSALTQPASVSGSPGQSITISCTGTSSDVGGYNLVSWYQQYPGNVPKLMIYEDAKRPSGVSNRFSGSKSANTASLTISGLQAEDEADYYCCSYAGSSTRYVFGTGTKVTVL
B11: C910 (protein)
chain 1: QVQLVQSGAAVKKPGASVKVSCKASGYTFTSYDINWVRQAPGQGLEWMGWMNPNSGNTGFAQRFQGRATLSRDTSITTAYMELTTLRSEDTAVYYCARGRANYNSKFLLDNWGQGTLVTVSS
chain 2: QSALTQPASVSGSPGQSITISCTGTSSDVGSYNLVSWYQQHPGTAPKLMIYEGSKRPSGVSDRFSGYKSGNTASLTISGLQADDEADYYCCSFAGSTTRYVFGTGTRVTVL
B12: C911 (protein)
chain 1: QVQLVESGGGVVQPGGSLRLSCAASAFTFSSYAMHWIRQSPGKGLEWVAVISSDGSSKFYADSVKGRFTISRDNSKNTLYLQMNSLSAEDTAVYYCARDLENVLIEVALQDWGQGTLVTVSS
chain 2: DIQMTQSPSSLSASVGDRVTITCRASQSINSYLNWYQQKPGKAPKLLIYAASSLHSGVPSRFSGSGSGTDFTLTISSLQPEDFATYYCQQSYTTLALTFGGGTKVEIK
B13: C847 (protein)
chain 1: QVQLVESGGGVVQPGGSLRLSCGASGFTFSSYAMHWVRQAPGEGLEWVAVILYDGAGKFYADSVKGRFTISRDNSKNTLYLQMNSLRAEDTAVYYCARDYGDYVTHFDYWGQGALVTVSS
chain 2: B3 chain 2 with R30S, T31S, F32Y, S34N, A40P, N56S, S76T, E93N
B14: C913 (protein)
chain 1: EVQLVESGGVVVQPGGSLRLSCAASGFTFDDYSMHWVRQVPGKGLEWIAVIFWDGTSTYYADSVKGRFTISRDNSKKSLYLQMNSLRSEDTALYYCAKDSEDCSSTSCYVDHWGQGTLVTVSS
chain 2: not shown
B15: C914 (protein)
chain 1: QVQLQESGPGLVKPSQTLSLTCTVSGGSITSGDYYWTWIRQPPGKGLEWIGYIYYSGNTYYNLSLRSRITISEDTSKNQFSLKLRSVTAADTAVYYCARAMITFGGVIVVLDYWGQGTLVTVSS
chain 2: QSALTQPPSASGSPGQSVTISCTGTSTDVGGYNFVSWYQQHPGKAPKLMIYEVSKRPSGVPDRFSGSKSGNTASLTVSGLQAEDEADYYCSSYAGSNILYVFGTGTKVTVL
B16: C915 (protein)
chain 1: QVQLQESGPGLVKPSQTLSLTCTVSGGSISSGDYYWSWIRQPPGKGLEWIGYIYYSDSTYYNPSLRTRVTISVDTSKNQFSLKLTSVTAADTAVYYCARAMITFGGVIVLYDYWGQGTLVTVSS
chain 2: B15 chain 2 with T27S, F34Y, S54T, D62A, N97I, I98L
B17: C918 (protein)
chain 1: QVQLVESGGGLVKPGGSLRLSCTASGFTFSDYYMTWLRQAPGKGLEWVSYISSTSPYTSYADSVKGRFTISRDNARNSVYLQMNSLRAEDTAIYYCARVPPPQRLHPFDVWGQGTMVTVSS
chain 2: DIQMTQSPSTLSASVGDRVTITCRASQSISSWLAWYQQKPGKAPKLLIYQASSLESGVPSRFSGSGSGTDFTLTISSLQPDDFATYYCQQYFRYSWTFGQGTKVEI
B18: C920 (protein)
chain 1: QLQLQESGPGLVKPSETLSLTCAVSGGSISNSPFYWGWIRQPPGKGLECIGSIYYSGSTYYNPSLKSRVTISVDTSKKQFSLKLSSVTAADTAVYYCARHFADGSGRVVDSWGQGILVTVSS
chain 2: EIVLTQSPATLSLSPGERATLSCRASQSVSSYLAWYQQKPGQAPSLLIYDVSNRATGIPARFSGSGSGTDFTLTISSLEPEDFAVYYCQQRINWPLYTFGQGTKLEIK
B19: C921 (protein)
chain 1: B18 chain 1 with G37A, S56T, K77T, S85R, S111Y, I116T
chain 2: B18 chain 2 with S30T, S31T, S45R, N53S, I92S
B20: C922 (protein)
chain 1: QVQLVESGGGLVKPGGSLRLSCAGSGFTFTDYYMAWIRQAPGKGLEWVSYISTSDRFINYADSVKGRFTISRDDAKNSLYLQMNSLRAEDTAVYYCARDGGGYDRFDHWGQGTLVTVSS
chain 2: DIQMTQSPSSLSASVGDRVTITCQASQDISNLLNWYQQKAGKAPKLLIYDASNLETGVPSRFSGSGSGTDFTFTISSLQPEDIATYYCLQYDNLPLTFGQGTKLEIK

These binders were tested against SARS-CoV-2 Wuhan-Hu-1 spike receptor-binding domain (assay: ELISA binding EC50; higher = weaker binding; ELISA of recombinant human antibody on coated antigen, from 10 µg/ml in fourfold dilutions; four-parameter fit.).

| Binder | ELISA binding EC50 [ng/mL] |
| --- | --- |
| B1 | 1.13 |
| B2 | 2.37 |
| B3 | 3.48 |
| B4 | 2.54 |
| B5 | 3.31 |
| B6 | 3.06 |
| B7 | 1.07 |
| B8 | 3.71 |
| B9 | 1.27 |
| B10 | 3.24 |
| B11 | 2.47 |
| B12 | 2.36 |
| B13 | 3.06 |
| B14 | 2.58 |
| B15 | 1.59 |
| B16 | 3.49 |
| B17 | 1.78 |
| B18 | 2.35 |
| B19 | 3.91 |
| B20 | 2.42 |
